The text below walks through data of the supplement of paper PMC3334620.

Over roughly 33,000 sequences, “E-score (-0.5 to 0.5)” has its median near -0.011; the highest 2% begin near 0.28. The list shows a part of the results.

For this test, the target named is T1, Gcr1 (UniProt P07261).
T1 sequence: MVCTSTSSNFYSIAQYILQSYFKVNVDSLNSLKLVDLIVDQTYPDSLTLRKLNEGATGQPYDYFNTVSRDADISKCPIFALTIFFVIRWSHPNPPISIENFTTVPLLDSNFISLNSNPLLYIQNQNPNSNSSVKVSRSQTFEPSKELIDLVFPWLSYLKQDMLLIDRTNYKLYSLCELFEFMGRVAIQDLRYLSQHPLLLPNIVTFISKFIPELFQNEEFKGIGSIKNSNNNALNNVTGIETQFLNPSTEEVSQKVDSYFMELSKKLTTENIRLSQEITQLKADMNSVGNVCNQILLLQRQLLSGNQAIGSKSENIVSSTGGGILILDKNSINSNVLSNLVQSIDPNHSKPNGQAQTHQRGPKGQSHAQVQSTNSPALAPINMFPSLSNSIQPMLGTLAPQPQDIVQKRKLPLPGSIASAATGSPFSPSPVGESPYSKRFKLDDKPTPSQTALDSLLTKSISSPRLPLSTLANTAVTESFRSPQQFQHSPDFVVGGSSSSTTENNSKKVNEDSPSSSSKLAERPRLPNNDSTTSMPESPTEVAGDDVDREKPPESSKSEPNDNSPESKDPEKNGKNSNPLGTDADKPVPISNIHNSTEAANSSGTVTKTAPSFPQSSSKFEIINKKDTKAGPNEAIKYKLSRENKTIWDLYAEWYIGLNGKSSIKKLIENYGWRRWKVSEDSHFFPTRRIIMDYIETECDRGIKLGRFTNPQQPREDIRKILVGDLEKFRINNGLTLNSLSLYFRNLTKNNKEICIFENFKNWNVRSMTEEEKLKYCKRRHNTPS
In words: PBM E-score (8-mer binding enrichment) (E-score (-0.5 to 0.5)); higher = stronger / more preferred TF binding; most listed sequences are background and not binding sites. The note with it: protein concentration: 100 nM; construct: GST-full length. The protocol: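 Universal 'all 10-mer' protein binding microarrays (Agilent AMADID 015681) probed with GST-tagged S. cerevisiae TFs (full-length or DBD) made by in vitro transcription/translation (PURExpress), about 100-200 nM. Bound TF was detected with fluorescent anti-GST. Each ungapped 8-mer (which stands for itself and its reverse complement) is scored by the PBM enrichment score (E-score), a modified Wilcoxon-Mann-Whitney statistic from -0.5 to +0.5, computed with the Universal PBM Analysis Suite. Scale: above 0.35 generally sequence-specific binding.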
Turning to CCTAGGGA, the “PBM E-score” value is -0.0617.

As to CGGCCGAG, the “PBM E-score” value was -0.104.

As for CCCCAAGC, the “PBM E-score” value is -0.00278.

Consider ACAACGCC, for which the “PBM E-score” value is -0.00671.

Regarding TCAATAGA, the “PBM E-score” value was found to be 0.144.

As to GAGAATGC, the “PBM E-score” value is -0.106.

As for AACCGAGC, the “PBM E-score” value is -0.358.

For the sequence ATGGCCTC, the “PBM E-score” value is -0.0894.

As to AGTGCAAG, the “PBM E-score” value was -0.113.

As to AGCGAGTC, the “PBM E-score” value was -0.209.

For the sequence CATAGTAA, the “PBM E-score” value was 0.00706.

Take CCTTTGAA: the “PBM E-score” value was determined as 0.0237.

For the sequence CGTGATTC, the “PBM E-score” value was -0.0403.

On to ACGGGGGC, for which the “PBM E-score” value was -0.08.

As for TCGCCACA, the “PBM E-score” value was -0.0277.

For AAGGTACT, the “PBM E-score” value is 0.0417.

Turning to ACTATCAC, the “PBM E-score” value was -0.13.

Turning to GGGGCCGA, the “PBM E-score” value is -0.155.

In the case of CTGTGGCA, the “PBM E-score” value was 0.0358.

In the case of TAGATCCA, the “PBM E-score” value is 0.0352.

GATCCTAC: the “PBM E-score” value was 0.0756.

As to CAAAGTGC, the “PBM E-score” value was -0.159.

As for CGCCACAA, the “PBM E-score” value was 0.203.

For ACTCCCCT, the “PBM E-score” value was -0.0338.

Consider ATCGCGAT, for which the “PBM E-score” value came to 0.183.

TGGTGACA: the “PBM E-score” value is 0.147.

In the case of CCAGACAG, the “PBM E-score” value is -0.0751.

For AGGTGTAA, the “PBM E-score” value is -0.0741.

Regarding ATCTCTGG, the “PBM E-score” value is 0.0288.

As for CGCTGGTC, the “PBM E-score” value was -0.0913.

Regarding CATATATC, the “PBM E-score” value is -0.0267.

Consider AAGTACCC, for which the “PBM E-score” value is -0.0247.

Turning to CCAACAGC, the “PBM E-score” value stood at 0.0791.

Turning to GAGGCGGA, the “PBM E-score” value is -0.147.

For ATCTGGCG, the “PBM E-score” value was -0.0107.

With CCTGTTAG, the “PBM E-score” value turned out to be 0.174.

Take ACTCGTAA: the “PBM E-score” value was determined as 0.059.

As to CGTGAATA, the “PBM E-score” value was -0.161.

With GACCTTAC, the “PBM E-score” value was -0.165.

In the case of AAGATCTA, the “PBM E-score” value is -0.0752.

Turning to AACGTCCA, the “PBM E-score” value was determined as 0.042.

Consider TCCGCAAA, for which the “PBM E-score” value was 0.241.

For GCGGCTGA, the “PBM E-score” value was found to be 0.0417.

Regarding CGGATTAG, the “PBM E-score” value was -0.0873.

In the case of ATCGGACA, the “PBM E-score” value stood at 0.0211.

Take ACCCCAAG: the “PBM E-score” value amounted to 0.03.

Consider CGGAAGCA, for which the “PBM E-score” value worked out at 0.0914.

On to ATTGGCGG, for which the “PBM E-score” value is -0.031.

For the sequence CCCTATAC, the “PBM E-score” value stood at 0.00175.

On to CCCGGTGC, for which the “PBM E-score” value amounted to 0.0817.

As for ATGGAGCG, the “PBM E-score” value is -0.116.

Regarding ATCTAACA, the “PBM E-score” value worked out at 0.148.

Regarding CCAACGGC, the “PBM E-score” value amounted to 0.0087.

Consider AAAAAATG, for which the “PBM E-score” value came out at 0.268.

As for GTTATAGA, the “PBM E-score” value was -0.167.

Turning to CGGCGGTA, the “PBM E-score” value was -0.0985.

Regarding GGGAAGGA, the “PBM E-score” value is -0.281.

Regarding TAGTGAGA, the “PBM E-score” value was -0.168.

As to AACTCACG, the “PBM E-score” value was -0.0239.

As for GGAGTCCC, the “PBM E-score” value was found to be 0.286.

As to AGTGGTCG, the “PBM E-score” value was 0.16.

For the sequence CCTATACG, the “PBM E-score” value is 0.0254.

Regarding TAGTTCAA, the “PBM E-score” value came to 0.102.

With CTGGGCAA, the “PBM E-score” value is -0.0301.

Turning to ACTGGTAG, the “PBM E-score” value came to 0.226.

CAATTTAA: the “PBM E-score” value was determined as 0.176.

CACTTATC: the “PBM E-score” value was found to be 0.0228.

With CCACGTCC, the “PBM E-score” value was -0.267.

For ATATTCAC, the “PBM E-score” value is -0.0894.

On to GGCGTACA, for which the “PBM E-score” value is -0.231.

Regarding ACGACTTC, the “PBM E-score” value is 0.135.

On to GAGGCACC, for which the “PBM E-score” value worked out at 0.081.

Consider ACCTGTTG, for which the “PBM E-score” value turned out to be 0.00119.

As to CGGTTCTC, the “PBM E-score” value was determined as 0.0309.

With CCGCTACG, the “PBM E-score” value was -0.014.

On to TAATGACA, for which the “PBM E-score” value was -0.117.

Turning to ACATCCGA, the “PBM E-score” value was -0.104.

With ACACAATG, the “PBM E-score” value is 0.00225.

AAGACGCG: the “PBM E-score” value stood at 0.278.

For CAAGGGGC, the “PBM E-score” value is -0.0593.

Turning to AGCAAACT, the “PBM E-score” value was 0.0882.

On to ACGGACAA, for which the “PBM E-score” value is -0.24.

For AGTAACTG, the “PBM E-score” value was -0.0397.

With CGATCGCG, the “PBM E-score” value was -0.187.

With CGTGTTGC, the “PBM E-score” value worked out at 0.12.

Take CAGCCTCA: the “PBM E-score” value was -0.0293.
